Test results: patent US5493007A, “Platelet aggregation inhibitors having high specificity for GPIIBIIIA” (Genentech, Inc., priority 1994, dated 1996)
Where two headings read alike, the source gives them in different places. At least one structure is not confirmed: it was looked up by name or label, or the drawing left a doubt. Where a SMILES comes first, the peptide text is derived from it. Bridges are numbered along the chain shown (N, C = ends). [ ]: non-standard residue; d: D form. Pen = CC(C)(S)[C@H](N)C(=O)O

Assays:
[1] = molecular target: T1, Vitronectin Receptor (αvβ3) (Homo sapiens, UniProt P05106+P06756); experiment: Human Vitronectin-Vitronectin Receptor (αvβ3) ELISA Assay; format: binding
T1 construct: Human vitronection receptor (VnR) is purified from human placenta; from tissue; host or cells: human placenta
T1 sequence (P06756 31-889 limits assumed): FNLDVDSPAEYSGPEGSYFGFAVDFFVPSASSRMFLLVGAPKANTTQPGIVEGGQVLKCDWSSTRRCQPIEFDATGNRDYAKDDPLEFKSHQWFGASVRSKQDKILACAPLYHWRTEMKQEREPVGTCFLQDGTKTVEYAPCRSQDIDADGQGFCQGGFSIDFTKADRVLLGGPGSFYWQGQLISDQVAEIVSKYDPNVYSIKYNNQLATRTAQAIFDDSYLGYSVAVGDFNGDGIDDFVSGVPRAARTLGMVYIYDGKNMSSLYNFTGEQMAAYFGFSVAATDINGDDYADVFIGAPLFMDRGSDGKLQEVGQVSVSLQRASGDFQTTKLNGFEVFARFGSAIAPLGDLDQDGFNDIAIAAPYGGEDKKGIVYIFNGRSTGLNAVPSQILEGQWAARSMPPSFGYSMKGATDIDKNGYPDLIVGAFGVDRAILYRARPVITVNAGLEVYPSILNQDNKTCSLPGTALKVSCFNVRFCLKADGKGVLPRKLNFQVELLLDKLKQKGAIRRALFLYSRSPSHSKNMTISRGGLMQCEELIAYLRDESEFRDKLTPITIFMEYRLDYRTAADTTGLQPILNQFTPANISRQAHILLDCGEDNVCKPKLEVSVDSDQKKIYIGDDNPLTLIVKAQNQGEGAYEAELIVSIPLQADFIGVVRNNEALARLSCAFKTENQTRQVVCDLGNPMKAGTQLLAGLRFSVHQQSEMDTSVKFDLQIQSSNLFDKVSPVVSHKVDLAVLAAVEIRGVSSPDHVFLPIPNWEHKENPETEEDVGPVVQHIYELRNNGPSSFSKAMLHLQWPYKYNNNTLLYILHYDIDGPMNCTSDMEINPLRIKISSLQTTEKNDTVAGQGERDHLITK
T1 sequence (P06756 891-1048 partner limits assumed): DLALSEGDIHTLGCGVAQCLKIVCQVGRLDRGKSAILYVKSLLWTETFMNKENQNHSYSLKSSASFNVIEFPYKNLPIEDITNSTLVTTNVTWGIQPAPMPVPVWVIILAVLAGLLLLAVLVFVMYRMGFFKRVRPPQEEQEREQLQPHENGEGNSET
T1 sequence (P05106 27-788): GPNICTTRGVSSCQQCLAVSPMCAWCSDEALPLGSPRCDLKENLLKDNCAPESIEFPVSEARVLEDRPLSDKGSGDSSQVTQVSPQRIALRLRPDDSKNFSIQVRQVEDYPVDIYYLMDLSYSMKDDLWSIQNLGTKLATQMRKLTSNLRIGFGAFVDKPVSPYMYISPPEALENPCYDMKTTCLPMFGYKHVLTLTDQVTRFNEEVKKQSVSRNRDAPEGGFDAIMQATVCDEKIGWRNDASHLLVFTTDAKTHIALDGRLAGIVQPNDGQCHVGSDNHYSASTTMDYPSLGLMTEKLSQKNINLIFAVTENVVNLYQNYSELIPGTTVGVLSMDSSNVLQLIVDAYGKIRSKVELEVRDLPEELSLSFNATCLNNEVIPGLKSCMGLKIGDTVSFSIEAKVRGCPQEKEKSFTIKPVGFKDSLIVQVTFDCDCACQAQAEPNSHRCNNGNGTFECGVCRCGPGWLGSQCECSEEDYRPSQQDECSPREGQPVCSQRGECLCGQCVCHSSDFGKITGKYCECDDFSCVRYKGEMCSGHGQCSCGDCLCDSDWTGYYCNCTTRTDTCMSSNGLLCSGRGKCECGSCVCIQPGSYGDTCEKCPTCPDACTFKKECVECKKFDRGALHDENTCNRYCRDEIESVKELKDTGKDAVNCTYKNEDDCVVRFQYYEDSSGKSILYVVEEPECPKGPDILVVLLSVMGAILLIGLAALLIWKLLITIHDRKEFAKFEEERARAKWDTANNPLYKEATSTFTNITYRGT
Source text: Human vitronectin (Vn) is isolated from human plasma and purified by affinity chromatography by the method of Yatohgo et. al., (Cell Structure and Function 13:281-292 [1988]).
Human vitronection receptor (VnR) is purified from human placenta by the method of Pytela et al., (Methods Enzymol., 144:475 [1987]). Alternatively the αvβ3 receptor can be purified from some cell lines (e.g., human embryonic kidney 293 cells) transfected with DNA sequences for both the αv and β3 subunits. The subunits are purified by employing octylglucoside extraction followed by Con-A, Heparin-Sepharose, and S-300 Chromatography.
Anti-GP IIb IIIa monoclonal antibodies specific for human GP IIIa are prepared by the method of Newman et al. (Blood, 65:227-232 [1985]), or a similar procedure. This mouse Mab is specific for the β3 subunit of the vitronectin receptor.
Rabbit Fab 2 anti-mouse Fc fragment horse radish peroxidase conjugate (anti-MuFc HRP) is obtained from PelFreeze (cat. no. 715305-1).
Maxisorp microtiter plates are coated with 2 μg/ml human vitronectin dissolved in PBS ([…]) and stored overnight at 4° C. The plates are washed two times with PBS-0.05% Tween-20 (wash buffer) and blocked by incubating with about 150 μl/well of assay buffer (1%, BSA [RIA grade or better] in 50 mM Tris-HCl, 100 mM NaCl, 1 mM MgCl2, CaCl2, MnCl2 pH 7.4) for 60 minutes. Dilutions of standards are prepared and putative inhibitors (Table 3) are dissolved in assay buffer. The blocked plates are emptied and 25 μl/well of inhibitor or standard solution is added to each well. Twenty-five μl of a 30 μg/ml solution of purified αvβ3 in assay buffer is pipetted into the coated plate. The final concentration of receptor in the assay well is about 15 μg/ml. The plate is incubated on a shaker for 60 minutes. Meanwhile, for each microtite plate, 6 ml buffer solution containing 1.5 μg/ml of mouse monoclonal antibody specific for β3 is prepared. To this solution is added μl of the secondary antibody, which is anti-mouse-Fc-HRP antibody conjugate. For example, for one plate, prepare 6 ml of a 1.5 μg/ml mouse Mab solution to which is added 1 μl of anti-mouse-Fc-HRP antibody stock, (this represents a 1:6000 dilution of the antibody - HRP conjugate). This mixture is allowed to incubate during the receptor-inhibitor incubation. The assay plates are washed 4 times with PBS-Tween and 50 μl/well of the antibody mixture is then pipetted into the plate for a 60 minute incubation. The plate is washed 4 times and the color reaction is developed with 50 μl/well of 0.67 mg/ml o-phenyldiamine in PBS containing 0.012% H2 O2. Alternatively, 16 mM citric acid, 50 mM Na2 PO4 at pH 5.0 can be used as a substrate buffer. The reaction is stopped with 50 μl/well 1M H2 SO4. The plates are read at 492-405 nm and the data analyzed by four-parameter fit.

Fibronectin Receptor = Fibronectin Receptor (Homo sapiens, UniProt P05556+P08648); experiment: Human Fibronectin-Fibronectin Receptor ELISA Assay; format: binding; design: octylglucoside (OG) extracted human placenta; from tissue; host or cells: human placenta; conditions: human placenta fibronectin receptor, fibronectin-coated plates; read-out: ELISA IC50 Fibronectin FnR
Sequence of Fibronectin Receptor (P08648 42-894 limits assumed): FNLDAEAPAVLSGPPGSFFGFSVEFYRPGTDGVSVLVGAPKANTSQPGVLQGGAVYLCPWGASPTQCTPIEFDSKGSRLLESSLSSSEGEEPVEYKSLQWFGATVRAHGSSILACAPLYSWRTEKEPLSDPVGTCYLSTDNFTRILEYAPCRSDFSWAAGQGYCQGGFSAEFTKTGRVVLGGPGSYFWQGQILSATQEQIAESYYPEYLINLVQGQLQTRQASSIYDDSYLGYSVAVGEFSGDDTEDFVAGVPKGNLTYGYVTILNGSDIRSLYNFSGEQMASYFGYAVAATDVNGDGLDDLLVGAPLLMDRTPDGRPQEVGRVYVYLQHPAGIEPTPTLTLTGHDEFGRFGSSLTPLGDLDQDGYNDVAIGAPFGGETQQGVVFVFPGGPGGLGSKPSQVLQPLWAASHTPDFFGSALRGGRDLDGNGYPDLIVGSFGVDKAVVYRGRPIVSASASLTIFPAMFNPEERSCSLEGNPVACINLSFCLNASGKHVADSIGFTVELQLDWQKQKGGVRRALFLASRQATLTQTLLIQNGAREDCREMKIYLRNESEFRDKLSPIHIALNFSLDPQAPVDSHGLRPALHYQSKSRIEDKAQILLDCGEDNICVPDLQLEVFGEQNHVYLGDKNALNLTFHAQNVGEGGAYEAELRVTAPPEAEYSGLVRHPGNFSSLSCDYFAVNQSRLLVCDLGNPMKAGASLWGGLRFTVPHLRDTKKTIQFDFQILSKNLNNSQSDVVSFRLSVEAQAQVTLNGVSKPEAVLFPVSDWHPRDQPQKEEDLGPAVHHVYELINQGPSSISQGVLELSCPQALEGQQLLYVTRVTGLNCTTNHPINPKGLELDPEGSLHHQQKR
Sequence of Fibronectin Receptor (P08648 895-1049 partner limits assumed): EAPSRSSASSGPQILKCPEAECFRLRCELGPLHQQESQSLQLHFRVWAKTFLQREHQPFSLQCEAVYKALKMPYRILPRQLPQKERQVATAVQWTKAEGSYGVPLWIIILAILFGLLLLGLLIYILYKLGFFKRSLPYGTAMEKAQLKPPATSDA
Sequence of Fibronectin Receptor (P05556 21-798): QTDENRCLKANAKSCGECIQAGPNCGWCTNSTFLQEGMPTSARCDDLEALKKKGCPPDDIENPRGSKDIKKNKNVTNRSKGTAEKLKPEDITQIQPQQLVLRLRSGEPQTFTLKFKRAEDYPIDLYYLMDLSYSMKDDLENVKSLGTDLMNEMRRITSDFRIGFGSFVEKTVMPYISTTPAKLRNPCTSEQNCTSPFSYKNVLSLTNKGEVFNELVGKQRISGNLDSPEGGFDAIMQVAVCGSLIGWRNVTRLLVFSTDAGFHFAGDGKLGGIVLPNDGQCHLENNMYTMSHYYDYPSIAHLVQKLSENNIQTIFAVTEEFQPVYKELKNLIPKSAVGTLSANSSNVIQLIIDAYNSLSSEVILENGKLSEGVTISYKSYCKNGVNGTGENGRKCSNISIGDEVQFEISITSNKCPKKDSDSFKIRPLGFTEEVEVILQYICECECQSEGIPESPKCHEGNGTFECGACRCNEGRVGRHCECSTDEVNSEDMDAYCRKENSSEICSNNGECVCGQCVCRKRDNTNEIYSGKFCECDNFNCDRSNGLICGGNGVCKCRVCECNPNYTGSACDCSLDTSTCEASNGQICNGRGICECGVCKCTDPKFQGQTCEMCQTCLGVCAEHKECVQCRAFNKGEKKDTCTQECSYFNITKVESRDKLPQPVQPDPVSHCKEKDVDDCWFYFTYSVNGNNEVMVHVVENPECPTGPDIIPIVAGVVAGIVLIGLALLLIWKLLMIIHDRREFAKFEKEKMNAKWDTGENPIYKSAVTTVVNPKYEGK
Protocol: Fibronectin receptor is purified according to the procedures of Pytela et al., (Methods Enzymol. 144:475 […]). Briefly, fibronectin receptor is purified employing an Arg-Gly-Asp affinity chromatography from (100 mM) octylglucoside (OG) extracted human placenta. The OG extract is filtered over Sepharose 6B GRGDSPK column. The column is washed three times with three column volumes of Tris-buffered saline (TBS) TBS, 1 mM CaCl2, and 25 mM OG. The receptor is eluted with TBS, 20 mM EDTA, and 25 mM Octyl thioglucoside, and is stored in 1 mM CaCl2, 1 mM MgCl2, at -80° C.
Microtiter plates are coated with 110 μl human fibronectin (at 2 μg/ml) in TBS. Plates are washed three times with TBS containing 0.05% Tween 20. Test inhibitors are then added after washing in 10 microliter aliquots. The fibronectin receptor is added in 2-fold serial dilutions with TBS containing 20 mM octyl glucoside and 2 mM MnCl2. Plates are incubated three hours at room temperature, and washed with 200 μl TBS-Tween 20 buffer. 100 μl of affinity-purffied rabbit anti-human fibronectin receptor antibody is added to the wells and the plates are incubated two hours, washed twice with TBS-Tween and once with distilled water. Affinity-purified goat anti-rabbit IgG conjugated to horseradish peroxidase (100 μl) is added to each well followed by incubation for 60 minutes at room temperature. Plates are again washed twice with TBS-Tween and distilled water. 100 μl of substrate mixture (10 mg o-phenylenediamine in 25 ml 0.1M citrate-phosphate buffer, pH 5.0 6 μ30% H2 O2) is added to the plates and allowed to develop. The development process is stopped by adding 50 μl of 4N H2 SO4 to each well and read at […].

[2] = purified human αvβ3, vitronectin-coated plates, read-out: ELISA IC50 Vitronectin VnR

SMILES | IC50 [1, 2] [nM] | IC50 (Fibronectin Receptor) [nM] | IC50 ([1]; read-out: Vn-VnR interaction IC50) [nM]
N=C(N)NCCC[C@@H]1NC(=O)[C@@H](Cc2ccc(O)c(Br)c2)NC(=O)C[S+]([O-])C[C@@H](C(=O)N[C@H](CCCCN)C(N)=O)NC(=O)[C@H](CC(=O)O)NC(=O)CNC1=O (single isomer, unassigned) [7/37, cyclo-S-acetyl-dTyr--Arg--Gly--Asp--Cys--dLys--NH2] | 38 | 994 | 
N=C(N)NCCC[C@H](NC(=O)[C@@H]1C[S+]([O-])CC(=O)N[C@H](Cc2ccc(O)cc2)C(=O)N[C@@H](CCCNC(=N)N)C(=O)NCC(=O)N[C@@H](CC(=O)O)C(=O)N1)C(N)=O (single isomer, unassigned) [7/32] | 82 | 386 | 
N=C(N)NCCC[C@@H]1NC(=O)[C@@H](Cc2ccc(O)c(Br)c2)NC(=O)C[S+]([O-])C[C@@H](C(=O)N[C@H](CCCCN)C(N)=O)NC(=O)[C@H](CC(=O)O)NC(=O)CNC1=O (single isomer, unassigned) [7/38, cyclo-S-acetyl-dTyr--Arg--Gly--Asp--Cys--dLys--NH2] | 65 | 615 | 
N=C(N)NCCC[C@@H]1NC(=O)[C@@H](Cc2ccc(O)cc2)NC(=O)[C@H](CCCNC(=N)N)SC[C@@H](C(=O)O)NC(=O)[C@H](CC(=O)O)NC(=O)CNC1=O [9/8, cyclo-S-2-L-(5-guanidinovaleryl)-dTyr--Arg--Gly--Asp--Cys--OH] | 7 | 216 | 
N=C(N)NCCC[C@@H]1NC(=O)[C@@H](Cc2ccc(O)cc2)NC(=O)C[S+]([O-])C[C@@H](C(=O)N[C@H](CCCNC(=N)N)C(N)=O)NC(=O)[C@H](CC(=O)O)NC(=O)CNC1=O (single isomer, unassigned) [7/33, cyclo-S-acetyl-dTyr--Arg--Gly--Asp--Cys--dArg--NH] | 22 | 470 | 
N=C(N)NCCC[C@@H]1NC(=O)[C@@H](Cc2ccc(O)cc2)NC(=O)C[S+]([O-])C[C@@H](C(=O)N[C@@H](CCCN)C(N)=O)NC(=O)[C@H](CC(=O)O)NC(=O)CNC1=O (single isomer, unassigned) [7/39, cyclo-S-acetyl-dTyr-Arg--Gly--Asp--Cys--Orn--NH2] | 64 | 3.27 | 
N=C(N)NCCC[C@@H]1NC(=O)[C@@H](Cc2ccc(O)c(Br)c2)NC(=O)C[S+]([O-])C[C@@H](C(=O)N[C@@H](CCCCN)C(N)=O)NC(=O)[C@H](CC(=O)O)NC(=O)CNC1=O (single isomer, unassigned) [7/35, cyclo-S-acetyl-dTyr--Arg--Gly--Asp--Cys--Lys--NH2] | 27 | 1070 | 
N=C(N)NCCC[C@@H]1NC(=O)[C@@H](Cc2ccc(O)cc2)NC(=O)C[S+]([O-])C[C@@H](C(=O)N[C@H](CCCNC(=N)N)C(N)=O)NC(=O)[C@H](CC(=O)O)NC(=O)CNC1=O (single isomer, unassigned) [7/34] | 57 | 409 | 
N=C(N)NCCC[C@@H]1NC(=O)[C@@H](Cc2ccc(O)c(Br)c2)NC(=O)C[S+]([O-])C[C@@H](C(=O)N[C@@H](CCCCN)C(N)=O)NC(=O)[C@H](CC(=O)O)NC(=O)CNC1=O (single isomer, unassigned) [7/36] | 78 | 524 | 
CC1(C)SCC(=O)N[C@H](Cc2ccc(O)cc2)C(=O)N[C@@H](CCCCN)C(=O)NCC(=O)N[C@@H](CC(=O)O)C(=O)N[C@@H]1C(=O)O [7/47] ({CH2CO}-[dY]KGD[Pen]-OH; thioether N-5) | > 20000 | > 10000 | > 20000
N=C(N)NCCC[C@H](NC(=O)[C@@H]1C[S+]([O-])CC(=O)N[C@H](Cc2ccc(O)cc2)C(=O)N[C@@H](CCCNC(=N)N)C(=O)NCC(=O)N[C@@H](CC(=O)O)C(=O)N1)C(N)=O (single isomer, unassigned) [7/31, cyclo-S-acetyl-dTyr--Arg--Gly--Asp--Cys--Arg--NH2] | 39 | 330 | 
N=C(N)NCCC[C@@H]1NC(=O)[C@@H](Cc2ccc(O)cc2)NC(=O)[C@@H](CCCNC(=N)N)SC[C@@H](C(=O)O)NC(=O)[C@H](CC(=O)O)NC(=O)CNC1=O [9/9, cyclo-S-2-D-(5-guanidinovaleryl)-dTyr--Arg--Gly--Asp--Cys--OH] | 17 | 273 | 
